What all share (experiment): FACS binding to cells
Conditions in all cases: 1 μg protein
(In flow cytometry, cells or beads pass a laser one at a time.)

The test system of assay [1] is normal human bone marrow cells. Here is the method:
(§1) The acute myeloid leukemia cell lines EOL-1, MOLM-13, and REH cell lines known to express FLT3 protein on the cell surface, as well as the FLT3-negative cell lines K562, Daudi and normal human bone marrow cells (2.5×05 cells) were washed twice with FACS buffer. Then, 4 μl of Human TruStain FcX (Fc Receptor Blocking Solution) (cat #422302, Biolegend, USA) diluted in 100 μl of FACS buffer was treated to the cells and reacted at room temperature for 10 minutes. After the reaction was completed, 1 μg of the prepared anti-FLT3-scFv-Fc protein was added to the FACS tube and reacted at 4° C. for 20 minutes. After washing the unbound antibodies with FACS buffer, 3 μl of anti-human IgG-PE (cat #: 409304, Biolegend, USA) secondary antibody was diluted in 100 μl of FACS buffer was treated and incubated at 4° C. for 20 minutes. After the reaction, the unbound antibodies was washed twice with FACS buffer, and then FACS analysis was performed. In the case of a commercialized anti-human FLT3 (CD135)-PE antibody (cat #313308, Biolegend, USA), after treatment with Fc receptor blocking solution, 3 μl was treated, reacted at 4° C. for 20 minutes, and finally washed, followed by FACS analysis was performed.

For a further assay, the system named is FLT3+ MOLM-13 cell line. On the set-up: species or system human. As for the experimental part: as §1
A further assay has as its system FLT3+ REH cell line. More on the design: species or system human. Here is the method:
as §1

A further assay relates to FLT3- K562 cells. On the set-up: species or system human. As for the experimental part: as §1
The subject of a further assay is FLT3+ EOL-1 cell line. On the set-up: species or system human. As for the experimental part:
as §1

The test system of a further assay is FLT3- Daudi cells. More on the design: species or system human. As for the experimental part:
as §1

B1: anti-FLT3 scFv-hyFc: recombinant fusion of anti-FLT3 scFv (SEQ ID NO:13) and modified Fc region (SEQ ID NO:1) (protein)
chain: EVQLVQSGAEVKKPGSSVKVSCKASGGTFSSYAISWVRQAPGQGLEWMGGIIPIFGTANYAQKFQGRVTITADKSTSTAYMELSSLRSEDTAVYYCATFALFGFREQAFDIWGQGTTVTVSSGGGGSGGGGSGGGGS[about 100 residues not given here]FGPGTKVDIKAAAEPKSPDKTHTCPPCPSHTQPLGVFLFPPKPKDQLMISRTPEVTCVVVDVSQEDPEVQFNWYVDGVEVHNAKTKPREEQFNSTYRVVSVLTVLHQDWLNGKEYKCKVSNKGLPSSIEKTISKAKGQPREPQVYTLPPSQEEMTKNQVSLTCLVKGFYPSDIAVEWESNGQPENNYKTTPPVLDSDGSFFLYSRLTVDKSRWQEGNVFSCSVLHEALHNHYTQKSLSLSLGK
Regarding B1, the binding to cells entry in assay [1] is recorded as “did not bind”; in the assay on FLT3+ MOLM-13 cell line, “strong binding”; with FLT3+ REH cell line, “strong binding”; in the assay with FLT3- K562 cells, “did not bind”; in the assay with FLT3+ EOL-1 cell line it was “strong binding”; in the assay on FLT3- Daudi cells, “did not bind”.

For the origin of these results see patent US20220333079A1, “GENETICALLY MODIFIED NK CELL LINE TRANSDUCED WITH GENE ENCODING NOVEL CHIMERIC ANTIGEN RECEPTOR AND USE THEREOF” (SLBIGEN INC., priority 2019, published 2022).
